Data: patent publication US20230348609A1

Assays:
[1] = molecular target: human CD40, full-length, on cells (human) (UniProt P25942); experiment: FACS (MFI) on W352-CHOK1.hPro1.A7 cells expressing human CD40, four-parameter fit
[2] = molecular target: human CD40, full-length, on cells (human) (UniProt P25942); experiment: FACS (MFI) on Raji cells, four-parameter fit
[3] = molecular target: human CD40, full-length, on cells (human) (UniProt P25942); experiment: FACS (MFI) on A431 cells, four-parameter fit
[4] = molecular target: W352-cynoPro1.ECD.His (cynomolgus monkey) (UniProt G7PG38); experiment: SPR, Biacore 8K; antibody captured by goat anti-human Fc; analyte W352-cynoPro1.ECD.His
[5] = molecular target: cynomolgus monkey CD40 on transiently transfected 293F cells (cynomolgus monkey) (UniProt G7PG38); experiment: FACS (MFI) on 293F cells transiently transfected with cynomolgus monkey CD40, four-parameter fit
[6] = molecular target: W352-hPro1.ECD.His (human) (UniProt P25942); experiment: SPR, ProteOn XPR36; antibody captured by goat anti-human Fc; analyte W352-hPro1.ECD.His; 1:1 model
[7] = molecular target: human CD40, full-length, on cells (human) (UniProt P25942); experiment: cell-based or functional assay

B1: WBP352-BMK4.hIgG2K (antibody, INN chains, looked up, V domains shown)
VH: [letters of about 100 residues omitted]DQPLGYCTNGVCSYFDYWGQGTLVTVSS
VL: DIQMTQSPSSVSASVGDRVTITCRASQGIYSWLAWYQQKPGKAPNLLIYTASTLQSGVPSRFSGSGSGTDFTLTISSLQPEDFATYYCQQANIFPLTFGGGTKVEIK
modifications: IgG2 kappa
EC50 [1]: 4.3 nM | EC50 [2]: 1.7 nM | EC50 [3]: 1.4 nM | Kd [4]: 6.94 nM | koff [4]: 0.00107 s⁻¹ | kon [4]: 155000 M⁻¹ s⁻¹ | EC50 [5]: 5.2 nM | Kd [6]: 4.83 nM | koff [6]: 0.00111 s⁻¹ | kon [6]: 230000 M⁻¹ s⁻¹ | EC20, B cell proliferation [7]: 0.0055 nM | EC20, CD54 expression, DC activation assay [7]: 0.26 nM | EC20, CD80 expression, DC activation assay [7]: 0.49 nM | EC20, CD83 expression, DC activation assay [7]: 0.14 nM | EC20, IL-12p40 release, DC activation assay [7]: 0.69 nM | EC20, NFκB reporter assay, W352-Ramos.NFκBRE.luc [7]: 0.087 nM | EC20, NFκB reporter assay, W352-U937.hPro1.NFκBRE.luc [7]: 0.21 nM | EC50, B cell proliferation [7]: 0.16 nM | EC50, CD80 expression, DC activation assay [7]: 0.88 nM | EC50, CD83 expression, DC activation assay [7]: 0.24 nM | EC50, CD86 expression, DC activation assay [7]: 0.88 nM | EC50, IL-12p40 release, DC activation assay [7]: 1.2 nM | EC50, NFκB reporter assay, W352-Ramos.NFκBRE.luc [7]: 0.16 nM | EC50, NFκB reporter assay, W352-U937.hPro1.NFκBRE.luc [7]: 0.81 nM | EC90, B cell proliferation [7]: 0.89 nM | EC90, CD54 expression, DC activation assay [7]: 2.4 nM | EC90, CD80 expression, DC activation assay [7]: 2.2 nM | EC90, CD83 expression, DC activation assay [7]: 0.57 nM | EC90, CD86 expression, DC activation assay [7]: 2.3 nM | EC90, IL-12p40 release, DC activation assay [7]: 2.6 nM | EC90, NFκB reporter assay, W352-Ramos.NFκBRE.luc [7]: 0.45 nM | EC90, NFκB reporter assay, W352-U937.hPro1.NFκBRE.luc [7]: 7.2 nM
